PubChem BioAssay (NCATS)
This list was built around the results that the source calls inconclusive (neither active nor inactive); the mix of calls is not that of the screen. For part of these data: A potency beside an inconclusive call is a rough fit, not a confirmed value. The source made the active and inactive calls. The call rests on the fitted dose curve; in most records, active means well fitted curve in the direction sought with a large enough effect; inconclusive means small, poorly fitted or top-dose-only effect, or another doubt; inactive means no such curve, though single readings can be large; an effect the other way counts as inactive or inconclusive.

What was measured:
[1] = tested on: Zika virus NS2B-NS3 protease (linked construct); assay: Primary screen NINDS Rhodamine qHTS for Zika virus inhibitors (AID 1347160); further: nearly all actives have a fitted effect of over 55% in size; further: potency means the concentration at half of the fitted maximal effect; on activity change, negative = inhibition: on the % scale 0 is the no-effect control and ±100 the full control effect
Method in brief: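 Kinetic fluorescence (Ex 480 nm, Em 540 nm) over 15 min with 1.5 microM Rhodamine110 peptide and 25 nM linked protease.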

[2] = COV-362 Cancer Cell Toxicity qHTS against the NCATS CANVASS Library (AID 1347352); further: on the % scale 0 is the no-effect control and ±100 the full control effect
Method in brief: (§1)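 Cells were seeded at 1000 per well and allowed to settle 4 hours at 37 degrees C before pin transfer of compounds as an 11-point series. Viability was read by CellTiter-Glo luminescence after 72 hours' exposure.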

[3] = KB-8-5-11 Cancer Cell Toxicity qHTS against the NCATS CANVASS Library (AID 1347364); conditions: activity change, negative = toxicity: at 46.1 µM (top of the series); further: on the % scale 0 is the no-effect control and ±100 the full control effect; nearly all actives have a fitted effect of over 75% in size
Method in brief: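 KB-8-5-11 cells (500/well) in DMEM + 10% FBS were exposed to compounds in an 11-point qHTS series for 72 hr at 37C, 5% CO2. Viability was read by CellTiter-Glo luminescence.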

[4] = SDT Cancer Cell Toxicity qHTS against the NCATS CANVASS Library (AID 1347365);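 further: SDT canine glioma cells 500 per well in 1536 well plates; on the % scale 0 is the no-effect control and ±100 the full control effect; nearly all actives have a fitted effect of over 60% in size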
Method in brief: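 SDT canine glioma cells (500 cells/well) were exposed to compounds in an 11-point series for 72 hr at 37C, 5% CO2; viability was read as ATP content by CellTiterGlo luminescence.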

[5] = MCF7 Cancer Cell Toxicity qHTS against the NCATS CANVASS Library (AID 1347369); conditions: activity change, negative = cytotoxicity: at 46 µM (top of the series); further: potency means the concentration at half of the fitted maximal effect
Method in brief: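 Cells seeded at 500/well, then compound pinned. Plates incubated 72 hr at 37C, 5% CO2. CellTiterGlo added; luminescence read.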

[6] = biological target: Nuclear receptor subfamily 1 group I member 3 (Homo sapiens) (UniProt Q14994); assay: qHTS for Constitutive Androstane Receptor (CAR) Antagonist screened against the NCATS CANVASS Library (AID 1347372); further: potency means the concentration at half of the fitted maximal effect
Chain of UniProt Q14994 (Q14994 whole entry, looked up): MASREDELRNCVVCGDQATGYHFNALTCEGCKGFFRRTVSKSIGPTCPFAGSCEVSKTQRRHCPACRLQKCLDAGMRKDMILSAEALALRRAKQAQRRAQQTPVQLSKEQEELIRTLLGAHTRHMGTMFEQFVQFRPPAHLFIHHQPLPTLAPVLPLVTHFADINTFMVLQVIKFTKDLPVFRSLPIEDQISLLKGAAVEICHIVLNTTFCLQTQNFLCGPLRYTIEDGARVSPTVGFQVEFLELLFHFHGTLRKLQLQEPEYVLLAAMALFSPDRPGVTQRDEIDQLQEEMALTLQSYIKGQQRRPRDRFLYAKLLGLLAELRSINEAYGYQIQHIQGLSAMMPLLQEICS
Method in brief: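 HepG2 cells stably carrying hCAR and CYP2B6-2.2kb luciferase reporter, 2500 cells/well, compound with 50 nM CITCO agonist for 24hr at 37C. ONE-Glo luminescence measured CAR activity; CellTiter-Fluor read viability.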

[7] = biological target: Nuclear receptor subfamily 1 group I member 3 (Homo sapiens) (UniProt Q14994); assay: qHTS for Constitutive Androstane Receptor (CAR) Agonist screened against the NCATS CANVASS Library (AID 1347373);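 further: every well also contained 1.5 µM PK11195 alongside the test compound; 0% is about no effect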
Method in brief: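 HepG2 cells stably expressing hCAR and a CYP2B6-2.2kb luciferase reporter were treated for 24hr at 37C with compounds (11-point qHTS) in the presence of 1.5uM PK11195. Reporter activation was read by ONE-Glo luminescence.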

[8] = 10-beta competent E. coli microbial cell viability qHTS against the NCATS CANVASS Library (AID 1347376); further: 0% is about no effect
Method in brief: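 10-beta competent E. coli (0.9 OD culture diluted to 0.2 OD) exposed to compounds in an 11-point qHTS series, incubated overnight at 37C, 5% CO2. Viability read as ATP by BacTiter-Glo luminescence after 20 min at room temperature.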

[9] = qHTS for Antimalaria activity screened against the NCATS CANVASS Library (AID 1347380); further: nearly all actives have a fitted effect of over 40% in size; further: potency means the concentration at half of the fitted maximal effect;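 on activity change, negative = inhibition: Plasmodium falciparum strain Dd2 asexual parasites grown in red blood cells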
Method in brief: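 P. falciparum Dd2-infected RBCs (2.5% hematocrit final, 0.3% parasitemia) in Albumax II RPMI were exposed to compounds in an 11-point qHTS series for 72 h at 37C under 5% O2/5% CO2, then lysed with SYBR Green.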

[10] = Secretion counterscreen for inhibitors of the SERCaMP assay screened against the NCATS CANVASS Library (AID 1347390); conditions: SH-SY5Y constitutive GLuc secretion, luminescence, 20 h; activity change, negative = inhibition: at 76.6 µM (top of the series);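 further: light from luciferase secreted into medium read as a measure of general secretion; potency means the concentration at half of the fitted maximal effect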
Method in brief: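 SH-SY5Y-GLuc STOP cells; 4 h attach; cpds 0.001 - 77 uM (qHTS, 11 pts), 20 h 37C/5% CO2; coelenterazine in glow buffer; luminescence, 5 s exposure.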

[11] = Vero-766 cells viability qHTS against the NCATS CANVASS Library: Counterscreen for Zika virus inhibition assay (AID 1347394); conditions: Vero 766 viability, CellTiter-Glo luminescence, 72 h; activity change, negative = cytotoxic: at 46.1 µM (top of the series); further: on the % scale 0 is the no-effect control and ±100 the full control effect; nearly all actives have a fitted effect of over 60% in size
Method in brief: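 Vero 766, no virus; 1000 cells/well; o/n attach; cpd 11-pt; 72 h, 37C, 5% CO2; CTG luminescence; cell-free media wells = 100% inhibition.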

[12] = Primary qHTS for inhibitors of nuclear receptor binding SET domain protein 2 (NSD2) in an isogenic RCH-ACV NSD2 p.E1099K mutant (9B) (AID 1645876); further: on the % scale 0 is the no-effect control and ±100 the full control effect; nearly all actives have a fitted effect of over 70% in size
[13] = Primary qHTS for inhibitors of nuclear receptor binding SET domain protein 2 (NSD2) in an RCH-ACV wild type WT cells (2C) (AID 1645877); further: on the % scale 0 is the no-effect control and ±100 the full control effect; nearly all actives have a fitted effect of over 70% in size
[14] = Primary fluorescence-based thiol-reactive (MSTI) qHTS assay for identification of artifact compounds. (AID 1845221);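 further: thiol-reactive compounds lower the probe fluorescence signal; nearly all actives have a fitted effect of over 65% in size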
Method in brief: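 First, 4 uM MSTI in 2% DMSO/PBS pH 7.4 was dispensed; next, compounds were added; then plates sat 1 h at room temperature without light. Finally, emission at 598 nm was recorded.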

[15] = Primary redox qHTS assay for identification of artifact compounds. (AID 1845223); further: potency means the concentration at half of the fitted maximal effect
Method in brief: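 Amplex Red (25 uM) and HRP (250 mU/mL) in HBSS, with compounds for 15 min, then 250 uM DTT for 30 min, room temperature, dark. Fluorescence 525/598 nm read; normalized to DMSO and 10 uM DA3003; Hill fit.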

[16] = HEK-293 Cancer Cell Toxicity qHTS against the NCATS CANVASS Library (AID 1347355); further: on the % scale 0 is the no-effect control and ±100 the full control effect; nearly all actives have a fitted effect of over 65% in size
Method in brief: as §1

[17] = tested on: NAD(P)H diaphorase (Clostridium kluyveri); assay: Diaphorse counterscreen qHTS: Assay Interference Panel against the NCATS CANVASS Library (AID 1347362); further: potency means the concentration at half of the fitted maximal effect
Method in brief: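 Clostridium kluyveri diaphorase in PBS + 0.01% Tween-20 preincubated 15 min with compounds. Resazurin and NADH then added for 5 min at room temperature in the dark; resorufin fluorescence read (ex 525, em 598).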

[18] = Redox Reaction Profiling qHTS: Assay Interference Panel against the NCATS CANVASS Library (AID 1347401); further: potency means the concentration at half of the fitted maximal effect
Method in brief: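 Compounds in 11-point series incubated with 5 uM resazurin and 200 uM DTT in 50 mM HEPES pH 7.3, 50 mM NaCl. Resorufin fluorescence (Ex 525/Em 598) read before and after 15 min in the dark.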

[19] = Panc-1005 Cancer Cell Toxicity qHTS against the NCATS CANVASS Library (AID 1347349); further: on the % scale 0 is the no-effect control and ±100 the full control effect; nearly all actives have a fitted effect of over 60% in size
Method in brief: (§2)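 Viability was assessed by adding CellTiter-Glo reagent to treated cultures and reading luminescence after 15min at room temperature. Treatment lasted 72 h at 37 degrees C/5% CO2, using an 11-point series on 1000 cells/well.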

[20] = U-118MG Cancer Cell Toxicity qHTS against the NCATS CANVASS Library (AID 1347351); further: on the % scale 0 is the no-effect control and ±100 the full control effect
Method in brief: as §2

[21] = A2780 Cisplatin Sensitive Ovarian Cancer Cell Toxicity qHTS against the NCATS CANVASS Library (AID 1347353); further: on the % scale 0 is the no-effect control and ±100 the full control effect; nearly all actives have a fitted effect of over 60% in size
Method in brief: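 A2780 cisplatin-sensitive cells (750 per well) were seeded, left 4 h at 37 °C, then pin-dosed in an 11-point series. After 72 h at 37 °C/5% CO2, viability was measured as ATPLite luminescence.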

[22] = G06 Cancer Cell Toxicity qHTS against the NCATS CANVASS Library (AID 1347368)
Method in brief: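 G06 dog glioma cells seeded at 500 cells/well were exposed to compounds (11-point qHTS series) for 72 hr at 37C, 5% CO2; viability read as ATP content by CellTiterGlo luminescence.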

[23] = qHTS for Hypoxia signaling pathway (HIF-1) antagonists against the NCATS CANVASS Library (AID 1347374)
Method in brief: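 HRE-bla ME-180 cells (2,000/well, 0.5% dialyzed FBS) were pre-incubated 5 h, then given an 11-point compound series plus CoCl2 (60 uM solution as added) for 17 h at 37C. CCF4 β-lactamase read (ex 405, em 460/530 nm) after 2 h at RT.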

[24] = DH5-alpha competent E. coli microbial cell viability qHTS against the NCATS CANVASS Library (AID 1347377); conditions: viability signal change, negative = cytotoxic: at 46.1 µM (top of the series); further: potency means the concentration at half of the fitted maximal effect
Method in brief: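 DH5-alpha E. coli suspension (0.9 OD culture diluted to 0.2 OD) exposed to compounds in an 11-point series, overnight at 37C, 5% CO2. Viability read as ATP by BacTiter-Glo luminescence after 20 min at room temperature.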

[25] = qHTS for activators of Nrf2/ARE signaling pathway screened against the NCATS CANVASS Library (AID 1347391)
Method in brief: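 ARE-bla HepG2 beta-lactamase reporter cells, 2000 cells/well, were preincubated 5 h, then exposed to compounds (11-point series) for 16 h at 37C. CCF4 fluorescence (ex 405, em 460/530 nm) after 2 h at room temperature.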

[26] = Viability qHTS for inhibitors of the SERCaMP assay screened against the NCATS CANVASS Library (AID 1347400); further: on the % scale 0 is the no-effect control and ±100 the full control effect; nearly all actives have a fitted effect of over 70% in size
Method in brief: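 SH-SY5Y-GLuc SERCaMP MJH297-derived cells (1000 cells/well) were pre-incubated 4 h at 37C, then exposed to compounds for 48 h. Viability was read as CellTiter-Glo luminescence; bortezomib served as positive control.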

[27] = qHTS for Hypoxia signaling pathway (HIF-1) agonists against the NCATS CANVASS Library (AID 1347375); further: 0% is about no effect
Method in brief: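 HRE-bla ME-180 cells (beta-lactamase reporter under hypoxia responsive element) in 0.5% dialyzed FBS medium, 5 h at 37C, then compound 17 h, 11-point qHTS series. CCF4-AM FRET substrate 2 h RT; 460/530 nm emission read.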

[28] = qHTS for inhibitors of ER calcium dysfunction: SERCaMP assay screened against the NCATS CANVASS Library (AID 1347393); conditions: SH-SY5Y GLuc-SERCaMP secretion, thapsigargin, luminescence; activity change, negative = inhibition: at 76.6 µM (top of the series) unless noted; further: potency means the concentration at half of the fitted maximal effect; nearly all actives have a fitted effect of over 40% in size
Method in brief: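 SH-SY5Y GLuc-SERCaMP, 1000 cells/well, 4 h attach; cpd 16 h, 37C/5% CO2; thapsigargin (added as 6x 600 nM) 4 h; coelenterazine; luminescence. Reduced reporter release = ER Ca stabilization.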

[29] = biological target: Lysine-specific demethylase 5B (Homo sapiens) (UniProt Q9UGL1); assay: Optimization screen for KDM5B Histone Demethylases FDH coupled qHTS against the LOPAC library (AID 1347166); conditions: KDM5B demethylation, FDH-coupled NADH fluorescence (FDH is formaldehyde dehydrogenase); activity, negative = inhibition: at 57.5 µM (top of the series) unless noted; further: 0% is about no effect
Chain of UniProt Q9UGL1 (Q9UGL1 whole entry, looked up): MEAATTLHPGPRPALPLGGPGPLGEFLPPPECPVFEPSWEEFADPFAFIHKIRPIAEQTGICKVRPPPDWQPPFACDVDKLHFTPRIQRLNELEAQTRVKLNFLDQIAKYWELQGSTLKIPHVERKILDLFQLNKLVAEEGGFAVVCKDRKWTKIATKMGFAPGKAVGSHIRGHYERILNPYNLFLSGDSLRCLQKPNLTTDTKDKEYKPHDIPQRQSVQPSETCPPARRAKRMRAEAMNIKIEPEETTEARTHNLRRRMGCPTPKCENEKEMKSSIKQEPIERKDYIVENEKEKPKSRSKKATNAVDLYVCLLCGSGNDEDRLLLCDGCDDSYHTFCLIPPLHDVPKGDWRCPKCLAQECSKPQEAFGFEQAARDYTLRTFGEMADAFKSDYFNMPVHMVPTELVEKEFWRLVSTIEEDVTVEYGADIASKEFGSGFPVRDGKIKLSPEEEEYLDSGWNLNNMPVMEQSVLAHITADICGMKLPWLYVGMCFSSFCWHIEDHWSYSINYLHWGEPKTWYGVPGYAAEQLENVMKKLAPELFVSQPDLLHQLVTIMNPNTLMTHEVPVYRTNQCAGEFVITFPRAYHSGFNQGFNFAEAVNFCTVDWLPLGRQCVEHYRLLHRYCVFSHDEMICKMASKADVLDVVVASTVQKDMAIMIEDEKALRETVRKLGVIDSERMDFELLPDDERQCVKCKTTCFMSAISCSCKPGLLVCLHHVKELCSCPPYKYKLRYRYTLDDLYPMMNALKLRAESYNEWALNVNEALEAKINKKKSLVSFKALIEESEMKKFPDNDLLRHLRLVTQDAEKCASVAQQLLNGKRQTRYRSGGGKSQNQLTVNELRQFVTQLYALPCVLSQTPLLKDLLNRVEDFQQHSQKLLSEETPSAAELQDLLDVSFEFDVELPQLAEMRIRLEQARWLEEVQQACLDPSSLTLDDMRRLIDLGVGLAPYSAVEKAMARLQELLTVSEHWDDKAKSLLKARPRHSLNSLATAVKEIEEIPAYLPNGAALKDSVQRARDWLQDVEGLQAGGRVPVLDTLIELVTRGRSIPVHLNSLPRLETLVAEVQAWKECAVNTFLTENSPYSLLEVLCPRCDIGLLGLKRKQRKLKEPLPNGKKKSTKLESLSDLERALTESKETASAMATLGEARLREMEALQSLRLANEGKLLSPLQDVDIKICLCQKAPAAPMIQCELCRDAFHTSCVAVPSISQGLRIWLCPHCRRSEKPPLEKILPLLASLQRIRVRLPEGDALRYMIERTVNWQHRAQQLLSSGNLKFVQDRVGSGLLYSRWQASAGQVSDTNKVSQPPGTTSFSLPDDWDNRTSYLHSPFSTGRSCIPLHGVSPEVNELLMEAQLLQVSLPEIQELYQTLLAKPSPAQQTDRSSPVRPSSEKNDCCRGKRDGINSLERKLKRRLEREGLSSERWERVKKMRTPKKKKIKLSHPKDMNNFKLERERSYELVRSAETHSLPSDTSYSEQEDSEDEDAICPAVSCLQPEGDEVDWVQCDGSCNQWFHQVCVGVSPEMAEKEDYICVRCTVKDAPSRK
Method in brief: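 KDM5BDeltaAP (200nM final) preincubated 10 min with compound, then 12.5uM H3K4Me3, 25uM a-ketoglutarate, ascorbate, Fe(II), NAD+ and FDH added; 50mM HEPES pH 7.5, 0.01% Tween-20. NADH fluorescence (340/450 nm) change over 30 min, room temperature.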
Tags describe the fitted curve by direction and shape.

CC[C@@H]1C[C@@]2(CC)OC(=O)[C@@]3(CC)[C@H](CC)[C@@H]1[C@@H]23
inactive: Potency [2] | Potency [3] | Potency [4] | Potency [7] | Potency [8] | Potency [11]
inconclusive: Potency [1] 55.3 µM [inhibitor, single point] | Potency [5] 11.7 µM [cytotoxic, single point] | Potency [6] 2.63 µM [inhibitor, full curve] | Potency [9] 11.8 µM [rising, single point] | Potency [10] 2.72 µM [inhibitor, partial curve]

COC1CC(O[C@H]2CC[C@@]3(C)C(=CC[C@]4(O)C3[C@H](O)[C@@H](O)[C@]3(C)[C@@H]([C@H](C)O)CC[C@@]34O)C2)OC(C)C1OC1CC(OC)C(OC2CC(OC)C(OC3OC(C)C(OC4OC(CO)C(O)C(O)C4O)C(OC)C3O)C(C)O2)C(C)O1 (some centres undefined)
inconclusive: Potency [15] 2.25 µM [activator, partial curve, poor fit]
inactive: Potency [1] | activity change, negative = viability loss [12] 1.87% [at 9.23 µM] | activity change, negative = cell killing [13] -2.18% [at 9.23 µM] | activity change, negative = thiol reactive [14] 43.2% [at 11.5 µM]

C=C1C[C@@]23C=CC(=O)[C@@](C)(CCC(=O)Nc4c(O)ccc(C(=O)O)c4O)C2C[C@@H]1C(O)C3 (some centres undefined)
inconclusive: Potency [17] 19.3 µM [inhibitor, partial curve, poor fit] | Potency [18] 30.4 µM [activator, single point]
inactive: Potency [16] | Potency [9]
active: Potency [1] 44 µM

C=C1C[C@@]23C=CC(=O)[C@@](C)(CCC(=O)Nc4c(O)ccc(C(=O)O)c4O)C2C[C@@H]1CC3 (some centres undefined)
inconclusive: Potency [22] 20.9 µM [cytotoxic, single point] | Potency [23] 14.9 µM [inhibitor, partial curve] | Potency [24] 16.6 µM [rising, partial curve, poor fit]
active: Potency [1] 27.7 µM | Potency [25] 18.6 µM
inactive: Potency [19] | Potency [20] | Potency [21] | Potency [9] | Potency [11] | Potency [26] | Potency [18]

C=C[C@@]1(C)CC[C@@H]([C@H](C)C(=O)/C=C/C(C)C)O1
inactive: Potency [1] | Potency [27] | Potency [18]
inconclusive: Potency [22] 20.9 µM [cytotoxic, partial curve, poor fit] | Potency [28] 34.3 µM [inhibitor, partial curve]

C[N+](C)(C)CC(=O)[O-]
inactive: Potency [29]
